# Results as given in patent US20250129132A1 (University of Washington, published 2025).
# T1: SpyTag-azide peptide ST-N3, H-SEQ ID No. 51 (N3)-NH2 (ε-amino group of the C-terminal lysine functionalised with 4-azidobutanoic acid (N3); C-terminal amide)
# T1 construct: Made by Fmoc solid-phase synthesis; also called synthetic SpyTag peptide
# T1 peptide: AHIVMVDAYKPTKGSGK
# B1: SC-cUnaG (SC-SEQ ID No. 55-cUnaG-6xHis) (designed binder)
# chain: MVDTLSGLSSEQGQSGDMTIEEDS[no letters for about 80 residues]GKATKGDAHIGGSGGGSGGVKSVVNLVGEKLVYVQKWDGKETTYVREIKDGKLVVTLTMGDVVAVRSYRRATEKLGTLEHHHHHH
# notes: also called wild-type SC-cUnaG
# Target: T1, SpyTag-azide peptide ST-N3, H-SEQ ID …
# Assay: pre-reaction of SC-cUnaG (2 µM) with ST-N3 (20 µM), 48 h at 25 °C; read out by loss of UnaG reconstitution
# Description: FIG. 17A-17B: Assessing background fluorescence in the UnaG (SEQ ID No. 41) LASL system. […] This could be attributed to one of several potential mechanisms: FIG. 17A: (1) non-covalent association of pSC (SEQ ID No. 26) and ST could locally concentrate UnaG (SEQ ID No. 41) fragments to promote re-assembly, (2) nUnaG and cUnaG fragments could weakly associate non-covalently in a manner stabilized with bilirubin and independent of the fused pSC (SEQ ID No. 26)/ST (SEQ ID No. 7, SEQ ID No. 8), or (3) some combination thereof. To assess, we pre-reacted pSC-cUnaG (SEQ ID No. 39) and SC-cUnaG (SEQ ID No. 37) with a synthetic SpyTag peptide (SEQ ID No. 7. SEQ ID No. 8, ST-N₃) (Methods S15-16). […]
# pSC-cUnaG (SEQ ID No. 39) and SC-cUnaG (SEQ ID No. 37, 2 μM in Tris Buffer) were incubated with or without ST-N₃ (SEQ ID No. 7, SEQ ID No. 8, 20 μM) for 48 h at 25° C. Fluorescence reconstitution was determined by combining equimolar amounts of ST-N₃—(SEQ ID No. 7. SEQ ID No. 8) treated pSC-cUnaG (SEQ ID No. 39)/SC-cUnaG (SEQ ID No. 37) with nUnaG-ST (SEQ ID No. 31, all proteins at 1 μM) and excess bilirubin (10 μM). Reconstituted UnaG (SEQ ID No. 41) fluorescence was measured 24 h after nUnaG-ST (SEQ ID No. 31) addition using a fluorescent plate reader in 96-well, black opaque plates (λexcitation=491 nm, λₑₘᵢₛₛᵢₒₙ=528 nm).
binder,measurement,value
B1,binding result,binds
